Test results from PubChem BioAssay (NCATS).
Several values for one entry are separate records, joined by “and”; a condition that tells them apart may be missing. Equal values may be shown once. Inconclusive results, whose numbers are uncertain, are shown with a selection of clear calls. A potency beside an inconclusive call is a rough fit, not a confirmed value. Activity calls are given as the source filed them. Calls come from the whole dose curve; as a rule, active = well fitted curve in the direction sought with a large enough effect; inconclusive = small, poorly fitted or top-dose-only effect, or another doubt; inactive = no such curve, though single readings can be large; an effect the other way counts as inactive or inconclusive.

What was measured:
[1] = qHTS of pediatric cancer cell lines to identify multiple opportunities for drug repurposing: Primary screen for A673 cells (AID 1347092); details: A673 Ewing sarcoma viability, CellTiter-Glo ATP luminescence, 48 h; activity change, negative = cytotoxic: at 46 µM (top of the series) unless noted; note: nearly all actives have a fitted effect of over 45% in size
Procedure, shortened: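 Cells are plated, rested 5 h, dosed by pintool, incubated 48 h, then lysed with CellTiter-Glo and read by luminescence. DMSO is the neutral control; bortezomib at 2.3 uM final is the positive control.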

[2] = qHTS of pediatric cancer cell lines to identify multiple opportunities for drug repurposing: Primary screen for SK-N-MC cells (AID 1347093); details: SK-N-MC viability, CellTiter-Glo luminescence, 48 h; activity change, negative = cytotoxic: at 46 µM (top of the series)
Procedure, shortened: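 Metabolically active cells were quantified by ATP-dependent luminescence (CellTiter-Glo, 15 min at room temperature) following 48 h treatment. Cells had been plated at 500-1,000 per well and settled for 5 h beforehand.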

[3] = qHTS of pediatric cancer cell lines to identify multiple opportunities for drug repurposing: Primary screen for BT-37 cells (AID 1347094); details: BT-37 viability, CellTiter-Glo luminescence, 48 h; series mostly up to 57.3 µM
Procedure, shortened: (§1)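 Readout: CellTiter-Glo luminescence, 48 h treatment. Controls DMSO (neutral) and bortezomib 2.3 µM final (positive). Potency and efficacy taken from primary-screen concentration-response curves.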

[4] = qHTS of pediatric cancer cell lines to identify multiple opportunities for drug repurposing: Primary screen for Saos-2 cells (AID 1347097); details: Saos-2 viability, CellTiter-Glo ATP luminescence, 48 h; activity change, negative = cytotoxic: at 46 µM (top of the series); note: nearly all actives have a fitted effect of over 40% in size
Procedure, shortened: as §1

[5] = qHTS of pediatric cancer cell lines to identify multiple opportunities for drug repurposing: Primary screen for SK-N-SH cells (AID 1347098); details: SK-N-SH viability, CellTiter-Glo luminescence, 48 h; series mostly up to 57 µM; note: nearly all actives have a fitted effect of over 65% in size
Procedure, shortened: (§2)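 Cells (500-1,000/well) rested 5 h, then received compounds for 48 h; metabolically active cells were measured by CellTiter-Glo luminescence. Final concentrations spanned up to 46 µM (MIPE, 11-point) or 0.59 nM-46 µM (NPC, 8-point) in primary screens, 11-point in follow-ups.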

[6] = qHTS of pediatric cancer cell lines to identify multiple opportunities for drug repurposing: Primary screen for NB-EBc1 cells (AID 1347095); details: NB-EBc1 neuroblastoma viability, CellTiter-Glo luminescence, 48 h; series mostly up to 46 µM
Procedure, shortened: as §1

[7] = qHTS of pediatric cancer cell lines to identify multiple opportunities for drug repurposing: Primary screen for NB1643 cells (AID 1347099); details: NB1643 neuroblastoma viability, CellTiter-Glo luminescence, 48 h; series mostly up to 46 µM; note: nearly all actives have a fitted effect of over 50% in size
Procedure, shortened: as §1

[8] = qHTS of pediatric cancer cell lines to identify multiple opportunities for drug repurposing: Primary screen for BT-12 cells (AID 1347101); details: BT-12 viability, CellTiter-Glo luminescence, 48 h; series mostly up to 57.3 µM; note: nearly all actives have a fitted effect of over 25% in size
Procedure, shortened: as §2

[9] = qHTS of pediatric cancer cell lines to identify multiple opportunities for drug repurposing: Primary screen for LAN-5 cells (AID 1347100); details: LAN-5 neuroblastoma viability, CellTiter-Glo luminescence, 48 h; activity change, negative = cytotoxic: at 46 µM (top of the series)
Procedure, shortened: (§3)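 Viability after 48 h compound treatment at 37C, 500-1,000 cells/well, read as ATP luminescence with CellTiter-Glo. Primary screens used 11-point (MIPE, 0.78 nM-46 µM) or 8-point (NPC, 0.59 nM-46 µM) final concentrations; follow-up screens used 11-point dilutions.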

[10] = qHTS of pediatric cancer cell lines to identify multiple opportunities for drug repurposing: Primary screen for U-2 OS cells (AID 1347096); details: U-2 OS viability, CellTiter-Glo luminescence, 48 h; series mostly up to 46 µM; note: nearly all actives have a fitted effect of over 50% in size
Procedure, shortened: as §3
Potency is the fitted concentration of half-maximal effect; tags give direction and shape of the fitted curve.

Q: What does the source list for `CC(=C(CCOC(=O)C(C)C)SSC(CCOC(=O)C(C)C)=C(C)N(C=O)Cc1cnc(C)nc1N)N(C=O)Cc1cnc(C)nc1N`?
A: Potency [1]: inactive; Potency [2]: inconclusive: 23.7 µM [cytotoxic, partial curve, poor fit]; Potency [3]: inactive; Potency [4]: inactive; Potency [5]: inactive

Q: For `C[C@H](NC(=O)c1sccc1OCc1ccc(Cl)cc1)c1ccccc1`, which Potency [1] is on record?
A: active: 23.5 µM

Q: What about the Potency [2] of the same compound?
A: active: 13.2 µM

Q: What about the Potency [6] of the same compound?
A: inconclusive: 29.6 µM [cytotoxic, single point]

Q: And the Potency [4]?
A: inconclusive: 1.32 µM [cytotoxic, partial curve, poor fit]

Q: What about the Potency [7] of the same compound?
A: active: 23.5 µM

Q: And the Potency [8]?
A: active: 19.3 µM

Q: Which Potency [1] does the source give for `COc1ccc(C=CC(=O)Nc2ccccc2C(=O)O)cc1OC` here?
A: inconclusive: 29.6 µM [cytotoxic, single point]

Q: What about the Potency [2] of the same compound?
A: inconclusive: 37.2 µM [cytotoxic, single point]

Q: And the Potency [4]?
A: inconclusive: 0.0053 µM [cytotoxic, partial curve, poor fit]

Q: And the Potency [5]?
A: inconclusive: 0.541 µM [cytotoxic, full curve, poor fit]

Q: With `O=c1[nH]c2ccccc2n1CCCN1CCN(C(c2ccccc2)c2ccccc2)CC1` as the compound, how does the Potency [1] read?
A: inconclusive: 33.5 µM [cytotoxic, single point]

Q: What about the Potency [2] of the same compound?
A: inconclusive: 33.5 µM [cytotoxic, single point]

Q: What about the Potency [3] of the same compound?
A: inconclusive: 34.7 µM [cytotoxic, single point]

Q: What about the Potency [4] of the same compound?
A: inconclusive: 26.6 µM [cytotoxic, single point]

Q: What about the Potency [9] of the same compound?
A: inconclusive: 33.5 µM [cytotoxic, single point]

Q: And the Potency [8]?
A: inconclusive: 38.9 µM [cytotoxic, single point]

Q: Which results are given for `C[C@@H](O[C@H]1OCCN(Cc2n[nH]c(=O)[nH]2)[C@@H]1c1ccc(F)cc1)c1cc(C(F)(F)F)cc(C(F)(F)F)c1`?
A: Potency [1]: inconclusive: 37.2 µM [cytotoxic, single point]; Potency [2]: inconclusive: 33.2 µM [cytotoxic, single point]; Potency [4]: active: 26.4 µM; Potency [9]: inconclusive: 26.4 µM [cytotoxic, single point]; Potency [8]: inconclusive: 27.3 µM [cytotoxic, partial curve]

Q: What does the source list for `CCCNS(=O)(=O)Nc1ncnc(OCCOc2ncc(Br)cn2)c1-c1ccc(Br)cc1`?
A: Potency [1]: inactive; Potency [2]: inconclusive: 37.2 µM [cytotoxic, single point]; Potency [3]: inactive; Potency [7]: inconclusive: 37.2 µM [cytotoxic, partial curve, poor fit]; Potency [9]: inactive; Potency [8]: inconclusive: 30.6 µM [cytotoxic, partial curve, poor fit]

Q: Which results are given for `CC(=O)Oc1ccccc1C(=O)Nc1ncc([N+](=O)[O-])s1`?
A: Potency [1]: active: 42.9 µM and inconclusive: 33.5 µM [cytotoxic, single point]; Potency [2]: inconclusive: 21.5 µM [cytotoxic, full curve, poor fit] and inconclusive: 33.5 µM [cytotoxic, single point]; Potency [6]: active: 10.8 µM and active: 15 µM; Potency [10]: inconclusive: 27 µM [cytotoxic, partial curve] and inconclusive: 16.8 µM [cytotoxic, single point]; Potency [4]: active: 27 µM and inconclusive: 33.5 µM [cytotoxic, single point]; Potency [5]: inconclusive: 21.7 µM [cytotoxic, single point]; Potency [7]: active: 42.9 µM and active: 21.1 µM; Potency [8]: active: 39.5 µM and active: 21.9 µM

Q: With `Cc1ccnc(NS(=O)(=O)c2ccc(NC(=O)Nc3ccc(S(=O)(=O)Nc4nccc(C)n4)cc3)cc2)n1` as the compound, how does the Potency [1] read?
A: inconclusive: 29.6 µM [cytotoxic, single point]

Q: And the Potency [2]?
A: inconclusive: 33.2 µM [cytotoxic, partial curve, poor fit]

Q: And the Potency [6]?
A: active: 14.8 µM

Q: And the Potency [4]?
A: inconclusive: 14.8 µM [cytotoxic, partial curve]

Q: And the Potency [7]?
A: inactive

Q: What about the Potency [9] of the same compound?
A: inconclusive: 26.4 µM [cytotoxic, single point]

Q: And the Potency [8]?
A: active: 24.3 µM

Q: What does the source list for `COc1cccc(-c2cc(=O)c3ccccc3o2)c1N`?
A: Potency [1]: inconclusive: 0.296 µM [cytotoxic, full curve]; Potency [2]: active: 0.662 µM; Potency [4]: inactive; Potency [5]: inconclusive: 21.5 µM [cytotoxic, partial curve]; Potency [8]: inactive
